Reference: the supplement of paper PMC3334620
The full ranking holds about 33,000 sequences; the median of “E-score (-0.5 to 0.5)” is about -0.013, and the highest 2% start at about 0.3. This is one part of the list.

target: T1, Msn1 (UniProt P22148); test: PBM E-score (8-mer binding enrichment) (E-score (-0.5 to 0.5)); higher = stronger / more preferred TF binding; most listed sequences are background and not binding sites; conditions: protein concentration: 200 nM; construct: GST-full length
T1 sequence: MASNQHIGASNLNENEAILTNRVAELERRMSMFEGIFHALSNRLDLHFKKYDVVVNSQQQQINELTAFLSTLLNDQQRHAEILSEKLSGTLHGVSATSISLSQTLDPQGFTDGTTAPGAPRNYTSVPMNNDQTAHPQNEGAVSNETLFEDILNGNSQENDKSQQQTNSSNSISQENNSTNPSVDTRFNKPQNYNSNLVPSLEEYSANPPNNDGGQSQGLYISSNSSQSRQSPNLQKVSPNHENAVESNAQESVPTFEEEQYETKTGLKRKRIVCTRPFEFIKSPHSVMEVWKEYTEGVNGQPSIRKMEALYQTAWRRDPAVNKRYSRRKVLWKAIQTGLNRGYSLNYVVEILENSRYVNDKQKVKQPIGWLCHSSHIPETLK
In short: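 Yeast transcription factors carrying a GST tag, as full-length proteins or DNA-binding domains, were produced by PURExpress in vitro transcription/translation. About 100-200 nM protein was applied to universal all-10-mer Agilent arrays, double-stranded by primer extension on fresh or once-stripped slides. Bound protein was detected with fluorescent anti-GST, and scans were normalised with masliner. The Universal PBM Analysis Suite gave each ungapped eight-base word, pooled with its reverse complement, an E-score, a modified Wilcoxon-Mann-Whitney statistic.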

Sequence | PBM E-score
GATGATAA | 0.0631
ATTCAAGG | -0.0593
AACTGAGA | 0.0195
CACAAGCA | -0.0283
GGGCAACA | -0.0223
ACCAGCGT | -0.0578
CCCAATCG | -0.0543
AAAAGGTG | -0.144
ATACTAGG | 0.0366
AAGGGCCC | -0.269
ATCACGCG | 0.148
GAATGGCA | 0.0355
CAGGAGGA | -0.103
ATCTCGAC | 0.0583
CGCAGATA | 0.0558
ACGAGCGA | 0.0188
GACTACAA | -0.011
ACAAAAAC | 0.319
GAACATAC | 0.193
GGCAACAC | -0.0261
AGGCAGTA | -0.091
TAACGAAA | 0.194
TCCGTACA | 0.214
GTATCTAA | 0.211
ATAATCGG | 0.185

Sequence | PBM E-score
GCGGAAAC | -0.117
CCTTGTTA | -0.0123
ATACCATC | -0.00044
ATCTGATG | 0.00794
AGTCGTTA | -0.128
CGTCCCCC | -0.436
ACGGTGTA | 0.0353
GCGCACAA | 0.0735
AAGAATAT | -0.00205
CTAGTTGC | -0.0643
ACTCCTCG | -0.00289
ACAGTGCG | -0.181
GAGCGATA | 0.0782
GTGCGCCA | -0.195
TGGCTAAA | 0.102
GTAAAAAA | 0.178
TGTCATAA | 0.397
GCGACTCC | -0.182
ATTCCTAA | 0.0942
CTCTGCAA | -0.0609
AAACGAAG | 0.00996
CGACGTTC | -0.281
GATCAAAA | 0.133
ATAAGGCC | -0.0554
AGATGGGA | -0.126

Sequence | PBM E-score
AGTCGATA | -0.0618
AGCAATGC | -0.0793
AGACAGAT | 0.187
AACTCTTG | 0.0893
AACACGGC | -0.14
AGTCTGGG | -0.183
CGTCTCTC | 0.0263
ACCGGTTG | -0.0618
ACTCTTCA | -0.0242
CACTAATG | -0.0828
ACCAGTCT | -0.194
ACTCCCCC | -0.294
ACTTGAAC | 0.101
AAGTATAC | 0.112
GTGACGCA | 0.0454
ACGTCTGG | 0.154
ATTATGTA | 0.149
ATCTTAGA | 0.179
GTCGAATA | 0.0273
CATAATGG | -0.169
CACAGCGA | 0.12
CCGTTACC | -0.0239
AGACGGAG | -0.201
ATACGCTA | -0.139
GATATGAA | 0.13

Sequence | PBM E-score
GCGTCGCC | -0.0704
CAATTGCC | -0.0132
CACCGCCA | -0.0657
CTCCAACC | -0.00536
ATGCCCAC | 0.0757
CGGTTCTA | 0.0533
ACAAATCA | 0.266
AGAGATGG | 0.00215
GTGATAAC | 0.0279
TAGAGAGA | -0.0195
CCCCAGGG | -0.401
GGATCACA | 0.0719
GAACGATA | -0.135
ACATGAGC | -0.0323
AGTAACAG | 0.0866
GACGAATC | 0.161
AAGCCCGG | 0.163
CGCTCATA | -0.217
AGATACCC | 0.0501
AAACCCTA | -0.0892
CAGACCCC | -0.258
ACCTCTGG | -0.217
CTCGAAAA | 0.0117
CAAAAACG | 0.121
CAACCAAG | 0.0196

Sequence | PBM E-score
CGGGGGCA | -0.318
CAACGACA | 0.307
CCTTAGTA | 0.0209
CAGACCTA | -0.0743
AACTCCGC | -0.259
ATCATGCG | -0.0522
CGCAAGGC | -0.225
ATCCTACA | -0.189
CGGAGCAC | 0.0322
ATTCAAAG | -0.0143
ACGGGGAG | -0.165
CGTAACAG | -0.00261
CGCGGGTC | 0.0184
CACCGAAG | 0.117
ATGATCCC | -0.0156
GATAAATA | 0.165
TGGTTGAA | -0.0117
GGCTAAAC | -0.052
GGGCGCAA | -0.0566
GGATTATA | 0.109
AACGTCAC | -0.0115
AGTTCGAG | 0.0807
AAATTCAC | -0.0266
CTGATGTA | 0.112
TCAATGCA | -0.176

Sequence | PBM E-score
AGCGAATA | 0.0725
AAATGTGT | 0.292
AGACGTCT | -0.0109
AACTGTAC | -0.121
GTGAATCA | -0.074
GTTATACA | 0.175
CCGGCCCC | -0.378
ACCTTGAG | -0.0236
ACCAGGGT | -0.268
CAGAATGG | 0.0269
GGGTAAAC | 0.00687
GAACAGTA | 0.0356
GGCACTTA | -0.142
AAATAGGG | -0.0637
AGTCTTAG | 0.0186
CAGTTAGG | -0.00482
GGTACCGA | -0.172
CACAGCTG | -0.0312
ATTGTACC | 0.237
CTCACGGC | -0.173
TACGCCGA | -0.0266
AAGCGGGG | -0.1
CGTTTAAG | -0.0492
ACGCAGGG | -0.0636
AACCATCG | 0.16

Sequence | PBM E-score
AGCTCAGC | -0.188
GAAAAACC | 0.0972
AAATTTAC | 0.233
CTCGGTGC | -0.156
CGCACTGC | -0.0396
ATAACCCC | -0.105
CCGTGTAC | 0.296
CAGTACTA | 0.138
ATCGGGGC | -0.227
ACCAAGGA | 0.0154
ACTCTCCC | -0.0866
AATAGACT | -0.0241
ATCGCACG | -0.0851
GAGCGATC | -0.11
TCGGCAAA | -0.0144
AAGCGCGA | -0.00175
GACATAGC | 0.295
CTTCCATC | -0.174
ATCAGTTG | 0.0796
GATCTTGC | -0.0598
CGACCAGA | -0.0555
CATCCCCC | -0.348
